Data taken from PMC4336329 (PLoS ONE, 2015).
Screen size: about 310,000 compounds; about 14,000 (4.5%) showed an effect of 50% or more. The effect is printed as a negative number. The list shows a part of the results.

target: human ether-à-go-go-related gene (hERG) potassium channel (human, UniProt Q12809); experiment: primary screen, population patch clamp on CHO cells stably expressing hERG
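Also: peak tail current of the secondary pulse compared with the same well before compound.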

Sequence of human ether-à-go-go-related gene (hERG) potassium channel (Q12809 whole entry, looked up): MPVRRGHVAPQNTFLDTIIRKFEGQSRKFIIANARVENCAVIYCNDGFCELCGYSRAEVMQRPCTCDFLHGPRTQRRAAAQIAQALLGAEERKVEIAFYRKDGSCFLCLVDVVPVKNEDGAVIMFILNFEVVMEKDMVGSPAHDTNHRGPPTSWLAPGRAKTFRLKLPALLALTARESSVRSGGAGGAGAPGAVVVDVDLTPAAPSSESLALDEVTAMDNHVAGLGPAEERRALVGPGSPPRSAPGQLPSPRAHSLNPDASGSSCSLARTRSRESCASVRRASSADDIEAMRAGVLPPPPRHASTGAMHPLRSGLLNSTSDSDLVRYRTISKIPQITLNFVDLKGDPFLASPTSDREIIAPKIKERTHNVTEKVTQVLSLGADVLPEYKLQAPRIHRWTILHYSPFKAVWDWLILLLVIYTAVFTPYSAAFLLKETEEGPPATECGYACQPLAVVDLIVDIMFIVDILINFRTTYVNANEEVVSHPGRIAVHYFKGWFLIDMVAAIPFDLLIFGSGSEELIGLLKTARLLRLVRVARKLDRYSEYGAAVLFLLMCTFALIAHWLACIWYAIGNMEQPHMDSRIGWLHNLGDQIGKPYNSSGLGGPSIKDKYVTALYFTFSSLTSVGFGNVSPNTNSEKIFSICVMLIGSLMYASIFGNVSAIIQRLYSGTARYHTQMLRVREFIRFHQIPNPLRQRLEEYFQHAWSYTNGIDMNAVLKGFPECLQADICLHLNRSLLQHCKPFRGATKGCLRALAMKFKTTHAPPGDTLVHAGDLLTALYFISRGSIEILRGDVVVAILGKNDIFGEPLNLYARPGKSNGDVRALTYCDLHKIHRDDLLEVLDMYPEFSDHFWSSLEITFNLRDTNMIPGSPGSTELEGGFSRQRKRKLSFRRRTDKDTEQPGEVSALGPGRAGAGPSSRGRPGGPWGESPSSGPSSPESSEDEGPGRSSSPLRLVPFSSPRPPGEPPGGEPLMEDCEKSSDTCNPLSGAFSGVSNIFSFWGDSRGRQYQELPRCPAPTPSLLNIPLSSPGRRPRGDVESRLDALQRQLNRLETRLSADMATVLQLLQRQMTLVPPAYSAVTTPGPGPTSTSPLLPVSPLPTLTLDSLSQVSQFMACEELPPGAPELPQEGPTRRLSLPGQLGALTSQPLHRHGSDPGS

| SMILES | hERG current change (%, negative = inhibition) at 10uM [%] |
| --- | --- |
| O=C(NCCCN1CCOCC1)c1ccc(Sc2cccc(Cl)c2)c([N+](=O)[O-])c1 | -45.7 |
| CC1CN(CC(=O)Nc2cc(S(=O)(=O)N3CCCC3)ccc2Cl)CC(C)O1 (stereo not shown) | -1.68 |
| CC(C)OC(=O)/C(C#N)=C\c1cccnc1 | 26.3 |
| Cc1ccc(C(=O)Nc2ccc(NC(=O)c3ccc(C)o3)cc2)o1 | -1.94 |
| CC(CNS(=O)(=O)c1ccccc1)Sc1nncn1C (stereo not shown) | 19.4 |
| COc1ccc(C(=O)N2CCN(c3ccc(C)cc3C)CC2)cc1OC | -68.5 |
| CCOc1ccc(NC(=O)CN(C)C(=O)/C=C/c2ccco2)cc1OCC | -61.2 |
| Cn1c(O)c(N=NC(=O)c2ccccc2O)c2ccccc21 | 13.6 |
| CSCCNC(=O)c1ccc2nc(Cc3ccccc3F)oc2c1 | 16.4 |
| O=C(CN1CCOCC1)Nc1nc(-c2ccc(Cl)cc2)cs1 | -48.2 |
| COc1ccc(/C=C/C(=O)c2cc3c(cc2N)OCO3)cc1 | 6.97 |
| COc1ccccc1NC(=O)CN(Cc1ccco1)C(=O)c1ccc(=O)[nH]c1 | 8.98 |
| CCOc1ccc(-n2c(O)c(/C=N/Nc3nc(C)cc(C)n3)c3ccccc3c2=O)cc1 | 24.3 |
| C=C(C)COc1ccc(-c2[nH]ncc2Oc2ccccc2OC)c(O)c1 | -55.2 |
| O=C(N/N=C/c1ccccn1)c1ccco1 | 8.08 |
| CNS(=O)(=O)c1cn(CC(=O)NCc2cccc(OC)c2)cc1S(=O)(=O)NC | 16.8 |
| CCOC(=O)C1=C(N)n2c(s/c(=C\c3ccco3)c2=O)=C(C(=O)OCC)C1c1ccco1 (stereo not shown) | -5.19 |
| COc1ccc(CC2C(=O)NC(=O)NC2=O)c(OC)c1 | 7.01 |
| COCCn1c(=NC(=O)c2cc(Cl)sc2Cl)sc2cc(S(N)(=O)=O)ccc21 | 17.4 |
| CC(C(=O)N1CCOCC1)N1C(=O)c2ccccc2C1=O (stereo not shown) | 16.9 |
| COC(=O)c1ccccc1NC(=O)c1sc(Cl)nc1C | 0.146 |
| O=C(NCc1ccc[n+](CCCCS(=O)(=O)[O-])c1)c1ccc(OC(F)F)cc1 | 14.9 |

| SMILES | hERG current change (%, negative = inhibition) at 10uM [%] |
| --- | --- |
| CC(=O)Nc1ccc(NC(=O)C(C)n2c3ccccc3c3nc(=O)cc(C)n32)cc1 (stereo not shown) | 5.15 |
| COc1ccc(COC(=O)N/N=C(\C)CC(=O)NCc2ccc(Cl)cc2)cc1 | 4.1 |
| COC(=O)CC(NC(=O)c1ccco1)c1cccc2ccccc12 (stereo not shown) | -23.4 |
| Cc1nnc(NC(=O)c2ccccc2Oc2ccccc2)s1 | 4.92 |
| O=C(COC(=O)C12CC3CC(CC(O)(C3)C1)C2)NC(=O)NCc1ccco1 | 1.49 |
| CC(C)CCSc1nc(N)c(C#N)cc1C#N | -7.04 |
| CC(=O)Nc1ccc(S(=O)(=O)NCc2cn3c(C)csc3n2)cc1 | 4.17 |
| Oc1ccc(Br)cc1CNc1cccc2cccnc12 | 18.5 |
| COc1cc(/C(C)=N\NC(=O)CSc2nc3ccccc3n2C)ccc1O | 12.2 |
| Cc1nc2ncnn2c(C)c1Cc1c(Cl)cccc1Cl | -8.13 |
| Cc1cccc(NS(=O)(=O)c2ccc3[nH]c(=O)cc(C(=O)OC(C)C(=O)Nc4ccc([N+](=O)[O-])cc4)c3c2)c1 (stereo not shown) | 16.3 |
| CCCNC(=O)CSc1nc2[nH]ncc2c(=O)[nH]1 | 11.6 |
| Cc1ccc([C@@H]2[C@@H]3C(=O)N(C)C(=O)[C@@H]3[C@]3(C)C(=O)N(Cc4ccccn4)CC(=O)N23)o1 | 9.41 |
| Cc1cccc(Cn2ccc(-c3ccc(Cl)cc3)c(C#N)c2=O)c1 | 5.04 |
| O=C(COc1ccccc1Cl)NC(=S)Nc1ccccc1N1CCCC1 | 18.4 |
| O=C(C1CCC1)N1CCN(c2cccc(C(F)(F)F)c2)CC1 | -7.07 |
| O=C1CC2(CCN(C(=O)c3cccc(Br)c3)CC2)Oc2ccccc21 | -85.5 |
| O=C(N/C(=C\c1ccccc1)C(=O)N1CCCCCC1)c1ccccc1 | 15.2 |
| Cc1sc2ncnc(NCC(c3ccco3)N3CCCC3)c2c1C (stereo not shown) | -51.5 |
| Cc1ccc(N2C(=O)N(CC(=O)Nc3c(C)cc(C)cc3Cl)C(=O)C2C)cc1 (stereo not shown) | -10.6 |
| COc1ccc([C@H]2CC(=O)C=C(c3cccc(Cl)c3)C2)cc1OC | -20.4 |
| CCN(CC)c1ccc(C=Nc2ccc(C)cc2C)c(O)c1 | -1.55 |

| SMILES | hERG current change (%, negative = inhibition) at 10uM [%] |
| --- | --- |
| Cc1ccc(S(=O)(=O)NCC(=O)N2CCOCC2)cc1 | 20.4 |
| COc1cc(C(=O)Nc2nnc(CC(C)(C)C)s2)c([N+](=O)[O-])cc1OC | 8.72 |
| CCCN(c1ccccc1F)S(=O)(=O)c1cc(-c2cc(C)no2)ccc1OC | 6.91 |
| COc1ccc(CCNC(=O)C(NC(=O)OCc2ccccc2)C(C)C)cc1OC (stereo not shown) | 6.52 |
| O=[N+]([O-])c1cc(-c2csc(NCCc3nc4cc(Cl)c(Cl)cc4n3CCCO)n2)ccc1Cl | 3.05 |
| C/C(=N\NC(=O)CSc1nc2ccccc2[nH]1)c1ccncc1 | -1.11 |
| O=C(CCC(=O)N(CC(=O)NC1CCCC1)C1CCCC1)Nc1ccccn1 | -15.7 |
| Nn1c(Cc2ccccc2F)nnc1SCCOc1ccc(Cl)cc1 | -14.1 |
| COc1ccc(-c2noc(CN(C(=O)c3ccc4c(c3)OCO4)C(C)C)n2)cc1OC | -6.78 |
| Cn1cc(Br)c(C(=O)NNC(=O)Cc2ccc(Cl)cc2)n1 | 3.6 |
| O=C(/C=C/c1ccco1)NCC1OCCc2ccccc21 (stereo not shown) | 16.7 |
| O=C1CN(S(=O)(=O)c2ccccc2)CC(=O)N1CCc1ccccc1 | 11.6 |
| CC(C)(C)CN1CCN(CCCc2ccccc2)C(CCO)C1 (stereo not shown) | -53.7 |
| O=C(c1cc2cccc([N+](=O)[O-])c2oc1=O)N1CCOCC1 | 3.66 |
| C/C(=N\NC(=O)c1csc(C)c1C)c1ccco1 | -12 |
| Cc1cccc(N(CC(N)=O)C2SC(=O)NC2=O)c1 (stereo not shown) | -17.3 |
| CC(=O)N1CN(C2CCCC2)Cc2c1sc1c2CCCC1 | 3.82 |
| CSc1ccccc1NC(=O)CN(C)Cc1ccc(Br)cc1 | -12.3 |
| COc1ccc(CCn2c(C(C)C)nc3oc4ccccc4c(=O)c3c2=O)cc1 | -75.3 |
| Cc1onc(-c2c(F)cccc2Cl)c1C(=O)Nc1sc2c(c1C(N)=O)CCC2 | -9.23 |
| Cc1ccsc1CN(C)C(=O)C(NC(=O)c1cccc(S(=O)(=O)N2CCOCC2)c1)C(C)C (stereo not shown) | -37.7 |
| CSc1ccc(/C=C(\C(=O)O)c2ccc(S(=O)(=O)N3CCCC3)s2)cc1 | -2.55 |

| SMILES | hERG current change (%, negative = inhibition) at 10uM [%] |
| --- | --- |
| CCOC(=O)C1(CCCc2ccccc2)CCN(C(=O)COC)CC1 | -25.9 |
| CN(C)S(=O)(=O)c1cccc(NC(=O)COc2ccc3ccccc3c2)c1 | -7.08 |
| COC(=O)c1[nH]c2ccc(Cl)cc2c1NC(=O)Oc1ccccc1 | 2.98 |
| CC(C)C[C@H](NC(=O)N1CCn2c1nc1ccccc12)C(=O)NC1CC1 | -3.4 |
| CC(C)CCN1CCN(Cc2ccc(Oc3ncccn3)cc2)CC1CCO (stereo not shown) | -9.21 |
| CN(CC(=O)NCC(c1ccco1)N1CCCCC1)S(=O)(=O)c1ccc(Cl)cc1 (stereo not shown) | -33.9 |
| Cc1cc(NC(=O)C(C)C)ncc1NC(=O)c1cccc(F)c1 | 9.05 |
| CN(C)S(=O)(=O)c1ccc(S(=O)(=O)NCc2ccc3c(c2)OCO3)cc1 | 9.81 |
| FC(F)(F)c1ccc(Oc2ccc3ccccc3c2Br)nc1 | 6.56 |
| Cc1[nH]c2ccccc2c1/C=N/NC(=O)c1cccc(F)c1 | 6.23 |
| NC(=O)Cn1c(=O)n(C2CCCCC2)c(=O)c2c3c(sc21)CCCCC3 | -6.3 |
| CCOc1ccc(CCNC(=O)c2ccc(CNS(=O)(=O)c3ccccc3)cc2)cc1OCC | 8.71 |
| N=C1SC(c2ccccc2)C(=O)N1c1ncc(Cc2ccccc2Cl)s1 (stereo not shown) | 1.65 |
| C=CCOc1ccc(/C=C/C(C)=N\O)cc1 | 4.84 |
| CCC(=O)N(Cc1ccc(S(N)(=O)=O)cc1)C1CC(=O)N(c2ccc(OC)cc2)C1=O (stereo not shown) | 10.3 |
| COC(=O)C1CCN(S(=O)(=O)Cc2ccccc2Cl)CC1 | 16.6 |
| CN1CCC(OC(=O)c2cccc(Br)c2)CC1.Cl | -36.3 |
| COc1cccc(OCCCCN2CC(C)OC(C)C2)c1.O=C(O)C(=O)O (stereo not shown) | -4.73 |
| Cc1ccccc1N1CCN(C2CCCN(C(=O)c3cc(CC(C)C)nn3C)C2)CC1 (stereo not shown) | -31.7 |
| CC1CCN(S(=O)(=O)c2cn(CC(=O)Nc3ccc(C#N)cc3)cn2)CC1 | 7.1 |
| COc1ccc2c(c1)c(C(=O)N/N=C/c1ccc(O)c(O)c1)c(C)n2C | 9.18 |
| O=C(Cn1cc([N+](=O)[O-])cn1)NCc1ccccc1 | 20.9 |
